Data from PubChem BioAssay AID504332 (National Center for Advancing Translational Sciences (NCATS), 2011).
Hit rate of the full screen: of about 350,000 compounds, about 31,000 (8.9%) were called active. This list was built around the results that the source calls inconclusive (neither active nor inactive); the mix of calls is not that of the screen. Calls come from the whole dose curve; as a rule, active = well fitted inhibition curve with a large enough effect; inconclusive = small, poorly fitted or top-dose-only effect; inactive = no such curve, though single readings can be large or run the other way. A potency beside an inconclusive call is a rough fit, not a confirmed value.

The compounds below were run against Histone-lysine N-methyltransferase EHMT2 (Homo sapiens) (UniProt Q96KQ7) (assay: qHTS Assay for Inhibitors of Histone Lysine Methyltransferase G9a). Conditions: G9a H3K9 monomethylation, AlphaScreen, 2 h; activity, negative = inhibition: at 59 µM (top of the series) unless noted.
Outline: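 Compounds were preincubated with 20 nM G9a for 15 min, after which biotinylated H3K9 peptide (500 nM) and SAM (20 uM) started a 2 h room-temperature reaction. Monomethylated product was quantified by antibody-based AlphaScreen chemiluminescence.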
% is set by controls: 0 for no effect and ±100 for the full control effect; potency is the fitted concentration of half-maximal effect; tags give direction and shape of the fitted curve.
Note: nearly all actives have a fitted effect of over 75% in size.

Chain of UniProt Q96KQ7 (Q96KQ7 whole entry, looked up): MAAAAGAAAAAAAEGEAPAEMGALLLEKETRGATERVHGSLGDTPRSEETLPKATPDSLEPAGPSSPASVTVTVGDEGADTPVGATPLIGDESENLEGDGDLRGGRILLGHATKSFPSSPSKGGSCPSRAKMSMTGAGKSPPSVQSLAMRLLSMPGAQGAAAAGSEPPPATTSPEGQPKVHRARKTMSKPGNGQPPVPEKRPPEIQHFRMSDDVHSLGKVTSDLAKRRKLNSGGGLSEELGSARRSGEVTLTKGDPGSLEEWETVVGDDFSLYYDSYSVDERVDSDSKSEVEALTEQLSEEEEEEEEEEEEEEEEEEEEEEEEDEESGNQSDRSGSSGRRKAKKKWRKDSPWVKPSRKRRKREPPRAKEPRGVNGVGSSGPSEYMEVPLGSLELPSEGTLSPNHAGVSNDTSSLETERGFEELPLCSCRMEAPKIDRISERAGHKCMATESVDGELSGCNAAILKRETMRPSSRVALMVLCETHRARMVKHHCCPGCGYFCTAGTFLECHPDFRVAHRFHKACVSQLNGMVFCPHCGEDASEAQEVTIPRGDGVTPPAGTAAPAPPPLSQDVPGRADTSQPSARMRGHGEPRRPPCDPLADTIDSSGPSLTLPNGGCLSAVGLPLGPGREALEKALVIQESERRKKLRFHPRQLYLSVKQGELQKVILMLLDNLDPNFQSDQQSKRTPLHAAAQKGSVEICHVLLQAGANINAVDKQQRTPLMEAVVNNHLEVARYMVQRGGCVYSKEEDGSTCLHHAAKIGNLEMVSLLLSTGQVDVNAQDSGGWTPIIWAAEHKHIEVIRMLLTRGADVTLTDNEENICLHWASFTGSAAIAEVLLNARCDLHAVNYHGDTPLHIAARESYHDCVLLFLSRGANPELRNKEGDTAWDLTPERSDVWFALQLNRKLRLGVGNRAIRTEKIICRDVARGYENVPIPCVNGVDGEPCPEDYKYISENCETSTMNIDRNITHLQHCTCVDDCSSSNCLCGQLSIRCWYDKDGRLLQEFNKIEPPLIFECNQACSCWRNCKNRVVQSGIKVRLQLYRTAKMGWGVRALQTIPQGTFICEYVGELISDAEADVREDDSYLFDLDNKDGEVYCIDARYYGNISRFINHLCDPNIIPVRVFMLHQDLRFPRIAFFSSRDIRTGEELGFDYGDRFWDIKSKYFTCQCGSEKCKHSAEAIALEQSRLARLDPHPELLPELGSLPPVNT

| Compound | activity, negative = inhibition | Potency |
| --- | --- | --- |
| CCCCC(CC)COC(=O)c1ccccc1O (stereo not given) | inactive: 36.1% |  |
| Cc1ccc(OCC(=O)NCC2(N(C)C)CCCCC2)cc1C | inactive: -10.5% |  |
| C/C(CC(=O)Nc1ccc2c(c1)OCCO2)=N\NC(=O)c1ccc([N+](=O)[O-])cc1Cl |  | inconclusive: 89.1 µM [inhibitor, single point] |
| COC(=O)Nc1ccc(SCC(=O)c2cccc([N+](=O)[O-])c2)cc1 | inconclusive: -85.5% [inhibitor] |  |
| O=C(NNc1ccccn1)c1ccc(Cl)nc1 |  | active: 3.55 µM |
| O=C1OCC(CO)(CO)N=C1NNc1ccc(Cl)c(Cl)c1 |  | inconclusive: 7.08 µM [inhibitor, single point] |
| Cc1ccc2nc(/C(C#N)=C\c3cc(C)n(-c4cccc([N+](=O)[O-])c4)c3C)[nH]c2c1 |  | inconclusive: 31.6 µM [inhibitor, single point] |
| O=C(CCN1CCN2CCCC2C1)N1c2ccccc2Sc2ccc(Cl)cc21 (stereo not given) |  | inconclusive: 79.4 µM [inhibitor, single point] |
| Cc1cc(C(=O)N/N=C2\CC(=O)CC(C)(C)C2)c(C)n1-c1ccccc1 |  | inconclusive: 35.5 µM [inhibitor, partial curve, poor fit] |
| CC1CCC(C(C)C)C(OC(=O)C2=C3c4ccccc4S(=O)(=O)N3CC2)C1 (stereo not given) |  | active: 25.1 µM |
| CC1(C)CC(=O)C=C(NC2CCCCCCC2)C1 |  | inconclusive: 39.8 µM [inhibitor, single point] |
| COC(=O)c1ccc(CSc2nnc3c(Cl)cc(Cl)cn23)o1 |  | inconclusive: 79.4 µM [inhibitor, partial curve, poor fit] |
| NC(=O)NN=C1C2CCCC1C(c1ccccc1)NC2c1ccccc1 (stereo not given) |  | inconclusive: 44.7 µM [inhibitor, partial curve] |
| c1ccc(-c2n[nH]c(-c3ccccn3)n2)cc1 |  | inconclusive: 1.26 µM [inhibitor, partial curve, poor fit] |
| CC(=O)N1CCCc2cc(S(=O)(=O)NC(C(=O)NC3CCCCC3)C(C)C)ccc21 (stereo not given) |  | active: 35.5 µM |
| CCOC(=O)c1cc2c(ccn2-c2ccc(F)cc2)n1CC(=O)N(CC)CC |  | inconclusive: 50.1 µM [inhibitor, partial curve] |
| Cc1cc(Cl)ccc1OCC(=O)OCC(=O)Nc1ccc(F)c([N+](=O)[O-])c1 |  | inconclusive: 39.8 µM [inhibitor, partial curve, poor fit] |
| CC(C)CC1NC(=O)N(CC(=O)NC2CCCCC2)C1=O (stereo not given) |  | inconclusive: 56.2 µM [inhibitor, partial curve] |
| CCn1c(SCC(=O)NNC(=O)c2ccc(C)cc2)nnc1C1CC1 | inactive: -4.94% [at 102 µM] |  |
| O=C(N/N=C/c1ccc(-n2ccnc2)cc1)c1cccs1 | inactive: 74.9% [at 102 µM] |  |
| COc1ccc(CCC(=O)Nc2ccc(S(=O)(=O)Nc3nccc(C)n3)cc2)cc1 |  | inconclusive: 89.1 µM [inhibitor, single point] |
| Cc1ccc(CNc2oc(-c3ccc(COc4ccc(C)cc4)o3)nc2C#N)cc1 |  | inconclusive: 5.01 µM [inhibitor, full curve] |
| CCC(C)[C@H](NC(=O)Nc1ccc(S(N)(=O)=O)cc1)C(=O)O (stereo not given in full) |  | inconclusive: 89.1 µM [inhibitor, single point] |
| Cc1nc2nc(-c3ccco3)[nH]n2c(=O)c1Cc1ccccc1 | inactive: -17.6% [at 12.7 µM] |  |

| Compound | activity, negative = inhibition | Potency |
| --- | --- | --- |
| Cc1ccc(-c2nnn(CC(=O)N(Cc3cccs3)C(C(=O)NC(C)(C)C)c3ccco3)n2)o1 (stereo not given) |  | active: 17.8 µM |
| S=C1NCCOCCOCCNC(=S)N2CCOCCOCCN1CCOCCOCC2 | inactive: 2.88% [at 102 µM] |  |
| O=C1CC(N(C(=O)c2ccco2)c2cccc(Cl)c2)C(=O)N1c1cccc(Cl)c1 (stereo not given) |  | inconclusive: 22.4 µM [inhibitor, single point] |
| CCN(CCCc1ccccc1)CCCc1ccccc1 |  | inconclusive: 39.8 µM [inhibitor, single point] |
| Cc1ccc2nc(NC(=O)CSc3nccn3-c3ccc(Cl)cc3)sc2c1 | inactive: 16% |  |
| O=C(c1ccccc1)N1CCN(C2CCCCC2)CC1 |  | active: 7.94 µM |
| COc1cc(Cl)cc(C2NC(=O)NC(C)=C2C(C)=O)c1OCC(=O)O (stereo not given) |  | inconclusive: 56.2 µM [inhibitor, partial curve, poor fit] |
| C(#CCN1CCOCC1)COC(c1ccccc1)c1ccccc1 |  | inconclusive: 39.8 µM [inhibitor, single point] |
| O=C1OCCN/C1=C\C(=O)c1ccccc1 |  | inconclusive: 89.1 µM [inhibitor, partial curve, poor fit] |
| COc1ccc(C(=O)Oc2ccc(/C=N/Nc3ccc(Cl)c(C(=O)O)c3)cc2OC)cc1 |  | active: 35.5 µM |
| Fc1ccc(Nc2nc(-c3ccncc3)cs2)cc1 | inactive: 2.57% [at 102 µM] |  |
| COc1cc(OC)c(-c2nn3c(-c4ccco4)nnc3s2)cc1OC |  | active: 44.7 µM |
| COc1cccc(/C=C2\SC(=S)N(C(C)C(=O)NC3C=CS(=O)(=O)C3)C2=O)c1 (stereo not given) |  | inconclusive: 56.2 µM [inhibitor, single point] |
| O=S(=O)(Cc1ccccc1)c1cnc2ccccc2n1 |  | inconclusive: 25.1 µM [inhibitor, single point] |
| CC(C)(C)c1ccc(C(=O)NC(=S)NCc2cccnc2)cc1 |  | inconclusive: 79.4 µM [inhibitor, partial curve, poor fit] |
| Cc1ccc(N2CN=C(c3ccccc3)NC2=S)cc1 |  | inconclusive: 39.8 µM [inhibitor, single point] |
| Cc1ccc(OCC(=O)NC(=S)Nc2cccc(NC(=O)c3ccc(Cl)cc3Cl)c2)cc1 | inactive: 10.6% |  |
| CCOC(=O)C1=C(C)NC(=O)NC1c1ccc(C)o1 (stereo not given) |  | inconclusive: 100 µM [inhibitor, single point] |
| Cc1cc(=O)n2[nH]c(N)c(N=Nc3ccccc3F)c2n1 |  | inconclusive: 12.6 µM [inhibitor, single point] |
| Cc1ccc(S(=O)(=O)N(CC(=O)N=Nc2c(O)[nH]c3ccccc23)c2ccc(C)c(C)c2)cc1 | inactive: 12.2% |  |
| CC(NC(=O)CN(c1cccc(C(F)(F)F)c1)S(C)(=O)=O)c1ccccc1 (stereo not given) |  | inconclusive: 89.1 µM [inhibitor, single point] |
| CN(C)CCCNC(=O)/C(=C\c1ccc(-c2cccc([N+](=O)[O-])c2)o1)NC(=O)c1ccccc1 |  | active: 50.1 µM |
| NS(=O)(=O)c1ccc(N=NN2CCCCC2)cc1 |  | inconclusive: 28.2 µM [inhibitor, partial curve, poor fit] |
| CS(=O)(=O)N1N=C(c2cccs2)CC1c1ccc(Cl)o1 (stereo not given) |  | inconclusive: 50.1 µM [inhibitor, partial curve] |

| Compound | activity, negative = inhibition | Potency |
| --- | --- | --- |
| Cc1ccccc1Nc1sc(C(=O)Nc2cccc(Cl)c2)c(N)c1C(N)=O |  | active: 79.4 µM |
| COc1ccc(CN(C(=O)c2cc3ccccc3oc2=O)C2CCS(=O)(=O)C2)cc1OC (stereo not given) |  | inactive |
| CCOC(=O)c1c(NC(=S)Nc2cccc(C)c2)sc2c1CC(C)(C)SC2 |  | inconclusive: 22.4 µM [inhibitor, single point] |
| Cc1c(-c2cccc(NC(=O)Nc3ccc(Cl)cc3)c2)nc2ncccn12 |  | inconclusive: 25.1 µM [inhibitor, partial curve, poor fit] |
| COc1ccccc1-c1noc(-c2ccc(NC3CCCCC3)c([N+](=O)[O-])c2)n1 |  | inconclusive: 0.158 µM [inhibitor, full curve, poor fit] |
| C/C(N)=C(/C#N)C(=O)COC(=O)CC1CCCC1 |  | inconclusive: 31.6 µM [inhibitor, single point] |
| O=C(CCCN1C(=O)C(c2ccccc2)Oc2cccnc21)NCc1ccccc1F (stereo not given) | inactive: -2.81% |  |
| COc1ccc(-c2nnn(Cc3nn[nH]n3)n2)cc1OC |  | inconclusive: 50.1 µM [inhibitor, partial curve, poor fit] |
| COc1cc2c(cc1OC)/C(=C/C(=O)c1ccc(F)cc1)NCC2 |  | active: 79.4 µM |
| CN(C)CCCN1C(=O)C(O)=C(C(=O)c2cccs2)C1c1cccc([N+](=O)[O-])c1 (stereo not given) | inactive: 15.9% |  |
| O=C(CC(NC(=O)c1ccccc1Cl)c1ccccc1)NC1=NCCS1 (stereo not given) |  | inconclusive: 89.1 µM [inhibitor, partial curve, poor fit] |
| COc1cccc(NC(=O)CCc2nc3c(C)nn(-c4ccc(C)cc4)c3n(C)c2=O)c1 | inactive: -23.7% |  |
| Cc1ccc(NC2=C/C(=N/S(=O)(=O)c3cccs3)c3ccccc3C2=O)cc1 |  | active: 2.82 µM |
| Cc1csc(NC(=S)Nc2cccc(Cl)c2)n1 |  | inconclusive: 39.8 µM [inhibitor, single point] |
| CC(=O)N1C(=O)N(C(C)=O)C2C1N(C(C)=O)C(=O)N2C(C)=O (stereo not given) |  | inconclusive: 89.1 µM [inhibitor, partial curve, poor fit] |
| COCCCNC(=O)c1cnc2sc(N3CCCCCC3)nn2c1=O | inactive: 9.42% |  |
| O=C(CCCc1cccs1)Nc1nc(-c2ccc(F)cc2)cs1 | inactive: -11.4% |  |
| O=C(CSc1ncnc2c1oc1ccccc12)OCc1ccccc1 |  | inconclusive: 70.8 µM [inhibitor, single point] |
| Cc1ccc(C(=O)c2no[n+]([O-])c2C(=O)c2ccc(C)cc2)cc1 |  | active: 39.8 µM |
| O=C(c1ccc(OC2CCN(Cc3ccccn3)CC2)cc1)N1CCC[C@H]1CO |  | inconclusive: 63.1 µM [inhibitor, single point] |
| c1ccc(N2CCN(c3nc4ccccc4[nH]3)CC2)nc1 |  | inconclusive: 25.1 µM [inhibitor, full curve] |
| Cc1c(Cl)cccc1NC(=O)Cn1c(CCC(=O)O)ccc1-c1ccccc1 |  | inconclusive: 89.1 µM [inhibitor, single point] |
